The values that follow come from the supplement of paper PMC9446081.

Structures are written as SMILES. Hit rate of the full screen: of about 39,000 compounds, about 220 (0.56%) showed activity. The list shows a part of the results.
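Also: static incubation at 37 °C against the wild-type strain, values averaged over two biological replicates.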

The assay deals with Escherichia coli K-12 BW25113. Briefly: relative growth (OD600 normalised to plate interquartile mean) (fraction); higher = less growth inhibition, active = 0.2 or less. The conditions noted are these: 50 µM; LB; incubation time: overnight (16-24 h).
`COc1ccc(NC(=O)N(C)C[C@H]2OCCCC[C@H](C)Oc3ccc(NS(=O)(=O)c4ccccc4)cc3C(=O)N([C@H](C)CO)C[C@@H]2C)cc1`: the relative growth was inactive: 0.991.

In the case of `O=C(Cn1cc(CN2C(=O)COC[C@H]2c2ccccc2)nn1)N1CCC2(CC1)C(=O)NCN2c1ccccc1`, the relative growth was inactive: 0.991.

In the case of `C[C@@H]1CN([C@H](C)CO)C(=O)Cc2cc(NC(=O)C3CCCCC3)ccc2O[C@@H]1CN(C)Cc1ccc(Oc2ccccc2)cc1`, the relative growth was inactive: 1.

In the case of `CCCC#Cc1cnc2c(c1)C(=O)N([C@H](C)CO)C[C@@H](C)[C@@H](CN(C)S(=O)(=O)c1cn(C)cn1)O2`, the relative growth is inactive: 1.03.

For the molecule `C=C/C=C/[C@@H]1C(=C)CN([C@@H](Cc2ccccc2)C(=O)OC)[C@H]1[C@@H](O)CCn1cc(-c2ccc(C(=O)NO)cc2)nn1`, the relative growth was inactive: 0.968.

As for `CO[C@@H]1CN(C)C(=O)c2cc(NS(=O)(=O)c3cn(C)cn3)ccc2OC[C@H](C)N(Cc2cccc(F)c2)C[C@@H]1C`, the relative growth is inactive: 1.04.

For the molecule `Cc1noc(C)c1NC(=O)Nc1ccc2c(c1)C(=O)N([C@@H](C)CO)C[C@@H](C)[C@H](CN(C)Cc1ccncc1)OCCCC[C@@H](C)O2`, the relative growth is inactive: 0.992.

`COc1ccc(S(=O)(=O)N(C)C[C@H]2Oc3ccc(NC(=O)CCCN(C)C)cc3C(=O)N([C@H](C)CO)C[C@@H]2C)cc1`: the relative growth was inactive: 0.999.

As to `C[C@@H]1CN([C@@H](C)CO)C(=O)c2cc(C#Cc3cccc(F)c3)cnc2O[C@H]1CN(C)Cc1ccccn1`, the relative growth is inactive: 1.

Regarding `C[C@H]1CN([C@@H](C)CO)C(=O)c2cc(NC(=O)CCCN(C)C)ccc2O[C@@H]1CN(C)S(=O)(=O)c1ccc(Cl)cc1`, the relative growth was inactive: 1.

With `C/C=C/c1ccc2c(c1)O[C@@H](CN(C)Cc1ccc(C(=O)O)cc1)[C@@H](C)CN([C@H](C)CO)S2(=O)=O`, the relative growth is inactive: 0.979.

As to `COCC#Cc1ccc([C@@H]2[C@H](CO)N3C(=O)CN(C(=O)CN4CCOCC4)C[C@@H]23)cc1`, the relative growth was inactive: 0.987.

For the molecule `C/C=C/c1ccc([C@@H]2[C@@H](CO)N(S(=O)(=O)Cc3ccccc3)C23CN(C(=O)C2CCOCC2)C3)cc1`, the relative growth was inactive: 1.

Regarding `C[C@H](CO)N1C[C@H](C)[C@H](CN(C)C(=O)C2CCOCC2)Oc2cc(-c3ccc(C(=O)N(C)C)cc3)ccc2S1(=O)=O`, the relative growth was inactive: 0.98.

In the case of `O=C(C[C@@H]1C=C[C@@H](NC(=O)c2ccc(F)cc2)[C@H](CO)O1)NCc1ccncn1`, the relative growth was inactive: 0.987.

As for `Cc1cc(C)c2ccc(Cl)nc2n1`, the relative growth was inactive: 0.976.

For the molecule `CNC(=O)Nc1ccc(-c2nc(N3C[C@H]4CC[C@@H](C3)O4)c3cnn(C4CCC5(CC4)OCCO5)c3n2)cc1`, the relative growth is inactive: 1.02.

As for `C[C@H]1CN([C@@H](C)CO)S(=O)(=O)c2ccc(-c3ccc(C(=O)N(C)C)cc3)cc2O[C@H]1CN(C)C(=O)Cc1ccccn1`, the relative growth was inactive: 0.985.

As to `CN(C)CCCNC(=O)C[C@@H]1C=C[C@H](NS(=O)(=O)c2ccccc2)[C@H](CO)O1`, the relative growth was inactive: 1.

As for `Cc1ccc(S(=O)(=O)Nc2ccc3c(c2)C(=O)N([C@H](C)CO)C[C@@H](C)[C@@H](CN(C)S(C)(=O)=O)O3)cc1`, the relative growth is inactive: 0.999.

For the molecule `COc1ccc(S(=O)(=O)N(C)C[C@H]2Oc3ccc(NS(=O)(=O)c4ccc(C)cc4)cc3CC(=O)N([C@@H](C)CO)C[C@@H]2C)cc1`, the relative growth is inactive: 1.01.

With `CCOC(=O)/C(=N/O)c1csc(N)n1`, the relative growth was inactive: 0.997.

As to `C[C@H]1CN([C@@H](C)CO)C(=O)CCCn2nncc2CO[C@@H]1CN(C)C(=O)Nc1ccccc1C(F)(F)F`, the relative growth was inactive: 0.975.

Turning to `N#Cc1c(-c2ccccc2)no[n+]1[O-]`, the relative growth was inactive: 0.992.

In the case of `C[C@@H]1CCCCO[C@H](CN(C)S(=O)(=O)c2cn(C)cn2)[C@@H](C)CN([C@@H](C)CO)C(=O)c2cc(NS(=O)(=O)c3cccs3)ccc2O1`, the relative growth was inactive: 0.995.

With `Oc1ccc(F)c2ccccc12`, the relative growth is inactive: 0.903.

Turning to `COc1cccc(S(=O)(=O)Nc2ccc3c(c2)[C@@H]2C[C@H](CC(=O)NC4CCCCC4)O[C@H](CO)[C@@H]2O3)c1`, the relative growth is inactive: 0.99.

Take `CC(=O)O[C@@H]1CC[C@]2(C)[C@H]3CC[C@]4(C)C(=CC(=O)O[C@H]4c4ccoc4)[C@]3(C)[C@H](OC(C)=O)C[C@H]2C1(C)C`: the relative growth was inactive: 1.01.

Take `C[C@H](CO)N1C[C@H](C)[C@@H](CN(C)S(=O)(=O)c2cccs2)Oc2ccc(NC(=O)CCCN(C)C)cc2C1=O`: the relative growth was inactive: 0.991.

With `O=C(CCCCCCC(=O)Nc1ccc([C@H]2O[C@@H](CSc3ccncc3)C[C@H](c3ccccc3)O2)cc1)NO`, the relative growth was inactive: 0.974.

For `O=C(Cn1ccc([N+](=O)[O-])n1)Nc1cccnc1`, the relative growth was inactive: 1.02.

Consider `COc1ccc(NC(=O)Nc2ccc3c(c2)C(=O)N([C@@H](C)CO)C[C@@H](C)[C@H](CN(C)Cc2ccc(Oc4ccccc4)cc2)O3)cc1`, for which the relative growth was inactive: 0.985.

As for `COC(=O)C1=C2CC[C@H](COC(=O)NCCCCCC(=O)NO)NC(=O)N[C@@H](Cc3ccccc3)c3cn(nn3)C[C@@H](Cc3ccccc3)NC(=O)c3oc(c(C(=O)OC)c3C(=O)OC)CC[C@H](COC(=O)NCCCCCC(=O)NO)NC(=O)N[C@@H](Cc3ccccc3)c3cn(nn3)C[C@@H](Cc3ccccc3)NC(=O)C(=C1C(=O)OC)O2`, the relative growth is inactive: 0.992.

On to `O=C(O)Cn1nnnc1-c1ccsc1`, for which the relative growth was inactive: 1.02.

For the molecule `Cc1ccc(S(=O)(=O)N(C)C[C@H]2Oc3ccc(NC(=O)CCCN(C)C)cc3CC(=O)N([C@@H](C)CO)C[C@H]2C)cc1`, the relative growth is inactive: 0.987.

`C=CC(=O)Nc1cccc(Nc2nc(Nc3ccc(NC4CN(CCF)C4)cc3OC)ncc2C(F)(F)F)c1`: the relative growth is inactive: 0.998.

As for `Cc1noc(C)c1S(=O)(=O)Nc1cccc2c1O[C@H](CN(C)C(=O)NC(C)C)[C@H](C)CN([C@H](C)CO)C2=O`, the relative growth is inactive: 1.01.

`Cc1noc(C)c1NC(=O)N(C)C[C@H]1OCCCC[C@@H](C)Oc2ccc(NC(=O)Cc3ccccc3)cc2C(=O)N([C@@H](C)CO)C[C@H]1C`: the relative growth is inactive: 1.01.

Turning to `COc1ccc([Si](C)(C)[C@@H]2[C@@H](CC(=O)N3Cc4ccccc4C[C@H]3CO)O[C@]3(C(=O)N(Cc4cccc(N5C(=O)c6cccc7cccc5c67)c4)c4ccccc43)[C@H]2C)cc1`, the relative growth was inactive: 1.04.

As for `CC(=O)O[C@H]1[C@H](O)[C@@H](O[C@@H]2C[C@](C)(O[C@H]3O[C@H](C)[C@H](O)[C@H](O)[C@@H]3O[C@@H]3O[C@H](C)[C@@H](O)[C@H](O)[C@@H]3O)O[C@@H]3CC[C@H]4C(C)(C)CCC[C@]4(C)[C@@H]23)O[C@@H](CO)[C@H]1O`, the relative growth is inactive: 1.

In the case of `CC(C)NC(=O)N(C)C[C@@H]1Oc2ccc(NC(=O)Cc3ccccc3)cc2CC(=O)N([C@H](C)CO)C[C@H]1C`, the relative growth is inactive: 0.977.

`COc1ccc(S(=O)(=O)Nc2ccc3c(c2)C(=O)N([C@@H](C)CO)C[C@@H](C)[C@@H](CN(C)Cc2ccc(Cl)c(Cl)c2)O3)cc1`: the relative growth is inactive: 0.967.

As for `COc1ccc(NC(=O)Nc2ccc3c(c2)CC(=O)N([C@@H](C)CO)C[C@@H](C)[C@@H](CN(C)Cc2ccc(Cl)c(Cl)c2)O3)cc1`, the relative growth is inactive: 1.01.

Turning to `C[C@H]1CN([C@@H](C)CO)C(=O)Cc2cc(NC(=O)Nc3ccc4c(c3)OCO4)ccc2O[C@@H]1CN(C)Cc1ccc(-c2ccccc2)cc1`, the relative growth is inactive: 1.

On to `NCC[C@@H]1CC[C@@H](NC(=O)C2CC2)[C@H](CO)O1`, for which the relative growth was inactive: 0.993.

`CCCNC(=O)N(C)C[C@@H]1Oc2cc(-c3ccccc3F)ccc2S(=O)(=O)N([C@H](C)CO)C[C@H]1C`: the relative growth is inactive: 0.995.

On to `C[C@@H]1CCCCO[C@@H](CN(C)C(=O)Cc2ccccc2)[C@@H](C)CN([C@@H](C)CO)C(=O)c2cc(NS(=O)(=O)c3ccc(Cl)cc3)ccc2O1`, for which the relative growth was inactive: 1.03.

As to `O=C(C[C@H]1C[C@@H]2c3cc(NC(=O)Nc4ccc(C(F)(F)F)cc4)ccc3O[C@@H]2[C@@H](CO)O1)NCc1ccc(Cl)cc1`, the relative growth is inactive: 1.03.

In the case of `CCCC/C=C/[C@H]([C@@H](O)Cc1ccccc1)N(CC#Cc1ccccc1)Cc1ccccc1Br`, the relative growth was inactive: 1.01.

For `CCCN(C)C[C@@H]1OCCCC[C@H](C)Oc2ccc(NC(=O)Cc3ccccc3)cc2C(=O)N([C@H](C)CO)C[C@@H]1C`, the relative growth is inactive: 0.997.

On to `C[C@@H]1CN([C@H](C)CO)C(=O)c2cc(NC(=O)NC3CCCCC3)ccc2O[C@@H](C)CCCCO[C@@H]1CN(C)C(=O)c1ccccc1`, for which the relative growth is inactive: 0.979.

As for `CC(C)NC(=O)N(C)C[C@H]1OCCCC[C@@H](C)Oc2ccc(NS(C)(=O)=O)cc2C(=O)N([C@@H](C)CO)C[C@H]1C`, the relative growth was inactive: 1.

Turning to `C[C@H](CO)N1C[C@H](C)[C@H](CN(C)Cc2ccc3c(c2)OCO3)OCCCC[C@H](C)Oc2ccc(NC(=O)Nc3ccc(C(F)(F)F)cc3)cc2C1=O`, the relative growth is inactive: 1.04.

On to `C[C@H](CO)N1C[C@H](C)[C@H](CN(C)Cc2ccc(Oc3ccccc3)cc2)Oc2ccc(NC(=O)Cc3ccccc3)cc2CC1=O`, for which the relative growth is inactive: 0.862.

As to `COCCNC(=O)C[C@@H]1CC[C@H]2[C@@H](COc3ccc(NC(=O)Nc4cccc(F)c4)cc3C(=O)N2C)O1`, the relative growth was inactive: 0.99.

For the molecule `COc1ccc([C@@H]([C@H](Cc2ccccc2)OC(C)=O)N2C[C@H](CC(=O)N(C)C)[C@@H]3[C@H]([C@@H]2Cc2ccccc2)N(C)O[C@H]3c2ccccc2)cc1`, the relative growth is inactive: 1.02.

On to `C[C@@H]1CN([C@@H](C)CO)C(=O)c2cc(NS(=O)(=O)c3ccccc3)ccc2O[C@@H](C)CCCCO[C@@H]1CN(C)Cc1ccc2c(c1)OCO2`, for which the relative growth was inactive: 0.996.
